From the supplement of paper PMC11417369
± gives the standard deviation of the averaged measurements. The list shows a part of the results.

System: PfAP2-I AP2 domain 3 (GST-tagged)
Test: gcPBM binding intensity (ln(normalized median fluorescence intensity)); higher = stronger DNA binding
How it was run: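 GST-tagged P. falciparum DNA-binding domains produced in E. coli were incubated for 1 h on an Agilent 4 × 180k array of primer-extended double-stranded 36-bp intergenic genomic probes with negative controls. Binding intensity is the highest Masliner-normalised natural-log median intensity across replicate spots of either probe orientation, with bound protein detected by Alexa488 anti-GST antibody at 488 nm.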

| Sequence | gcPBM binding intensity (ln) |
| --- | --- |
| AAAAAAAAATTATATACACACATATAAATATATATA [CACACA_site1197] | 7.75 ± 0.67 |
| ATTTATATTACAAAAAGTACACACATAAATAAATAC [XGTACX_site1827] | 8.41 ± 0.27 |
| TATATATATTATATATGTACATATATTTTTTTTTTT [XGTACX_site127] | 8.16 ± 0.44 |
| ATATATATATATATAACACACGTGTATATATATGTA [CACACA_site3644] | 9.45 ± 0.42 |
| TATTAATCATATAAATGTACGTATATATATTTTTCT [XGTACX_site1421] | 7.61 ± 0.41 |
| AAAAAAAAAAAATATATATATATATATATATATATA [CACACA_negctrl_site1606] | 9.67 ± 0.4 |
| CAATCATAGAAAAACAGTACGTGTAGCAAACATCCT [XGTACX_site4889] | 7.76 ± 0.89 |
| TATAATATATTATAACGTACAAATATATATATAAAA [XGTACX_site6581] | 7.89 ± 0.42 |
| CAACACTTAGATTTTAAGTTCACTGGTTAATATATA [CACACA_negctrl_site707] | 7.36 ± 0.33 |
| TTAAAAAAATATAGAGCATGCTAAAAATAAAAAAAT [TGCATGCA_site794] | 7.89 ± 0.86 |
| AATAAAAATAATATAGTGCATAATATAAGGAAAAAA | 11.1 ± 0.49 |
| GTTATACTCATCAACACACACATACAACGTGGTGTA [CACACA_site4789] | 7.62 ± 0.57 |
| AGGTCTATATAATAAGTGCATTTTTTTTTTTTTTTT [GTGCAC_site9664] | 9.765 ± 0.049 |
| TTTCTATATCTATTTAATTAACTTTTTATACTGATT [GTGCAC_negctrl_site415] | 7.73 ± 0.44 |
| GCATCTCATTTGTGATGTACTATATTATCCGTTTTT [XGTACX_site7576] | 7.53 ± 0.64 |
| ATCAACAAAACATACACACACATATATATATATATA [CACACA_site2989] | 9.29 ± 0.29 |
| CATATCATTGATTATAGTACACATACCATTTTTTAT [XGTACX_site6572] | 7.9 ± 0.51 |
| CACATAAAAAAATAAACACACATATGTATTTATATA [CACACA_site5718] | 7.46 ± 0.4 |
| TGCAATGGAGCATAAAGTACATATAATTGTATTTTT [XGTACX_site7349] | 7.74 ± 0.47 |

| Sequence | gcPBM binding intensity (ln) |
| --- | --- |
| TAGAATAATCCTTACACACACACACCCACGAATAAA [CACACA_site483] | 8.52 |
| AATACAGAGGAAAATACACACGTATATATATAAATA [CACACA_site9125] | 7.66 ± 0.67 |
| TTTTAAAAAAAAAAAAAAAAAAAAAAAAAAAAAAAA [CACACA_negctrl_site1343] | 8.31 ± 0.92 |
| TGTTTTTTTATTTTCACACATAATCCAATTATACAT [CACACA_site6070] | 8.22 ± 0.55 |
| TTTTAAAATTATTAGGTGCATATTTATTCTATATTT | 10 ± 0.35 |
| AAAAAAAAAAGACACACACACACAAATACATACACA [CACACA_site6472] | 7.96 ± 0.13 |
| TGAATAAAGATATATACACACATATAGGTATATATC [CACACA_site6870] | 7.49 ± 0.52 |
| TGCTTATATTTTTATACACACAAGATACTTTTTGTT [CACACA_site1535] | 7.86 ± 0.59 |
| ATCTAAATAAAGTTAACACACACATAATATATATAT [CACACA_site8055] | 8.99 ± 0.071 |
| TTTTTTTCTTTTGGGAGTACCAACATTTTCACATAT [XGTACX_site1371] | 8.13 ± 0.6 |
| CTATGCCCCATATAAACACACAAATAAAAAGAATAT [CACACA_site2681] | 8.14 ± 0.81 |
| AAAAAAAAAAAATATGTACACACATATATAATACAT [CACACA_site8473] | 7.82 ± 0.29 |
| TATATGTTTGAATATACACACAACATATTTATATAT [CACACA_site7832] | 7.47 ± 0.59 |
| TTTTTTGTTAAAAGAGTGCAAATTTTTAAAGATTTG [GTGCAC_site9502] | 10.2 ± 0.3 |
| AGTAATATAATATAAGCACACGTGTATTTATTTAGG [CACACA_site7921] | 8.21 ± 0.54 |
| AAAAAAAAAAAAAAATACAAGCACATTTATATAAGC [GTGCAC_negctrl_site695] | 8.46 ± 0.62 |
| AAATACATTAAAATGACATGCAGATATATATCAAAA [TGCATGCA_site477] | 7.8 ± 0.69 |
| TATATATCAATATTTACACACATGCGCCCACATAAA [CACACA_site7185] | 8.38 ± 0.31 |
| ATAGACAGCGCACAAACACACAAACACAGACCCCCA [CACACA_site4409] | 8.99 ± 0.099 |

| Sequence | gcPBM binding intensity (ln) |
| --- | --- |
| TTTTTTTTATGGTACACACACGCGTATGGTTGCACG [CACACA_site1877] | 8.69 ± 0.39 |
| TTATTTTTGTTCATAGTGCATAGAATTTATACATAT | 9.91 ± 0.33 |
| TTGTAAATTTCTGGTTATATATTTTATGTATATGTT [CACACA_negctrl_site1443] | 7.6 ± 0.62 |
| TTTTTTTCTTTTCAAACACACAATTGGTATATATCA [CACACA_site7542] | 7.74 ± 0.71 |
| ATTTATTTATTGGCACGTACAAATTTGTGTTTTCCA [XGTACX_site6978] | 8.54 ± 0.53 |
| AATTATATATTATAATGTACATATATATAACTATAC [XGTACX_site1865] | 7.76 ± 0.37 |
| ATAAAGGAAATTACAAGTACAAATAAGATAAAATAA [XGTACX_site4514] | 7.86 ± 0.52 |
| AAAGAAATGAAATATACACACATACATAAATACATA [CACACA_site6081] | 7.59 ± 0.39 |
| TATAAAAAAAGAGGAGGGATGGTATACTTGTGGTTT [TGCATGCA_negctrl_site49] | 7.7 ± 0.94 |
| ATATATTTAAACTACACACGCATATCTTAGAAATAA [CACACA_site1272] | 7.77 ± 0.54 |
| TGTATATATAAACATGCACACGTGGTTGTATATATA [CACACA_site9078] | 9.25 ± 0.52 |
| AATATTTTAAAAAAAAGTACATTATATATATATGTT [XGTACX_site8073] | 7.905 ± 0.049 |
| TAGTATTAAAATATTTGTACTTATATGTATTATATA [XGTACX_site538] | 7.47 ± 0.25 |
| TGTAGTCTGGAGAAGAGTACACAGTATCTGGTAACA [XGTACX_site2038] | 7.55 ± 0.52 |
| AGAATTCGTTTAAAAAGTACATTCAATTTAATAATG [XGTACX_site6603] | 7.61 ± 0.32 |
| AATAAAAAGGAACACACACACACACGGATATAAATA [CACACA_site7658] | 8.05 ± 0.51 |
| TATTTTACATCTTCTCACATTTTATCACTTTTTAAA [CACACA_negctrl_site330] | 8.08 ± 0.45 |
| TCATAGTATAGACACACACACACACGCATATAAATA [CACACA_site6915] | 8.01 ± 0.51 |
| TCTTTGTAAATTTCTTGTACGTAAATTTTTTTTAGG [XGTACX_site7062] | 8.2 ± 0.33 |
